PubChem BioAssay AID1745853 (National Center for Advancing Translational Sciences (NCATS), 2022)
The other results are listed elsewhere or left out. Further columns of the screen follow, without active or inactive calls.

What was measured:
Experiment in all cases: Primary Screen for Target Class Profiling of Small Molecule Inhibitors of Methyltransferases
[1] = molecular target: Glycine N-methyltransferase (Homo sapiens) (UniProt Q14749); details: purified enzyme, MTase-Glo SAH luminescence; measured here: GNMT inhibition; at 40 µM; stronger effect = lower value
Summary of the method: (§1)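 Each enzyme was assayed with SAM and its substrate. SAH formation detected by MTase-Glo luminescence; single-point 40 uM screen[…].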

[2] = molecular target: Guanidinoacetate N-methyltransferase (Homo sapiens) (UniProt Q14353); details: purified enzyme, MTase-Glo SAH luminescence; measured here: GAMT inhibition; at 40 µM; stronger effect = lower value
Summary of the method: as §1

[3] = molecular target: Histamine N-methyltransferase (Homo sapiens) (UniProt P50135); details: purified enzyme, MTase-Glo SAH luminescence; measured here: HNMT inhibition; at 40 µM; stronger effect = lower value
Summary of the method: as §1

[4] = molecular target: Nicotinamide N-methyltransferase (Homo sapiens) (UniProt P40261); details: purified enzyme, MTase-Glo SAH luminescence; measured here: NNMT inhibition; at 40 µM; stronger effect = lower value
Summary of the method: as §1

[5] = molecular target: Phenylethanolamine N-methyltransferase (Homo sapiens) (UniProt P11086); details: purified enzyme, MTase-Glo SAH luminescence; measured here: PNMT inhibition; at 40 µM; stronger effect = lower value
Summary of the method: as §1
On the % scale 0 is the no-effect control and ±100 the full control effect.

Row | SMILES | activity change, negative = inhibition [1] | activity change, negative = inhibition [2] | activity change, negative = inhibition [3] | activity change, negative = inhibition [4] | activity change, negative = inhibition [5]
1 | Cc1cc(C)cc(NC(=O)Cn2nc3n(C)c(=O)c4ccc(C(=O)NC5CCCCC5)cc4n3c2=O)c1 | -0.972% | 1.38% | 2.02% | -2.88% | -2.38%
2 | Cc1nn(-c2ccccc2)c2c1C(C1CC1)N(C1CCN(Cc3cccc(OC(F)(F)F)c3)CC1)C2=O (stereo not given) | -0.219% | 0.094% | 0.689% | -0.751% | -2.29%
3 | CCCn1c(=O)c2ccc(C(=O)NC3CCCC3)cc2n2c(=O)n(CC(=O)NC3CCCCC3)nc12 | -0.543% | 0% | 1.72% | 3.53% | 4.65%
4 | CC1=NOC2(CCN(Cc3ccc(N(C)C)cc3)C2)C1 (stereo not given) | -5.79% | -4.12% | -3.46% | -8.08% | 0.833%
5 | O=C1Nc2ccc(I)cc2/C1=C/c1cc(Br)c(O)c(Br)c1 | -91.3% | -56% | -84.7% | -77.2% | -54.7%
6 | Cc1ccccc1CCNC(=O)CCn1ccc2cc(S(=O)(=O)N3CCCC3)ccc21 | -4.02% | 6.22% | -3.83% | -10.7% | 0.43%
7 | CC(C)(C)c1cc2n(n1)CC(C)(C(=O)NC1CCCCC1)N(Cc1ccccc1Cl)C2=O (stereo not given) | -9.75% | 1.67% | 5.41% | 0.4% | -2.55%
8 | CC1CCN(S(=O)(=O)c2ccc3c(ccn3CC(=O)N3CCc4ccccc4C3)c2)CC1 | -1.11% | 6.08% | -6.72% | 2.82% | -0.195%
9 | Cc1ccccc1CNC[C@H]1Cn2c(-c3ccccc3)cnc2CO1 | -15.5% | -2.97% | -23.1% | -17.8% | -11.8%
10 | CC(C)(CC(=O)O)CC(=O)N1CCN2C(=O)N(CCc3cccs3)C(=O)[C@H]2C1 | -1.77% | -2.63% | 0.854% | 3.06% | -1.12%
11 | COc1ccc(OC)c(C2C(C#N)=C(N)Oc3n[nH]c(-c4ccc5ccccc5c4)c32)c1 (stereo not given) | 0.481% | 7.8% | 9.58% | -3.55% | 6.36%
12 | CNC(=O)c1cccc2cc(Oc3ccnc4cc(OCC5(N)CC5)c(OC)cc34)ccc12 | -4.12% | -4.96% | -40.3% | -22.6% | -7.07%
13 | COc1cc(C)c(-c2nc(CN3CCOC(CCN)C3)c(C)o2)cc1C (stereo not given) | -6.78% | -7.9% | -3.47% | -4.74% | -9.84%
14 | CCCCC(=O)N(C)CC1CCOC1 (stereo not given) | -6.65% | -11.3% | -5.3% | -20.7% | -10.1%
15 | CCCCN1C(=O)c2cc(C(=O)NCc3ccc(OC)c(OC)c3)nn2CC1(C)C(=O)NC1CCCC1 (stereo not given) | 7.21% | 1.36% | 4.22% | 7.22% | 7.49%
16 | Clc1ccc2c(c1)C1C=CCC1C(c1ccccc1)N2 (stereo not given) | -12.5% | -6.62% | -8.2% | -11.7% | -18.7%
17 | COC(=O)c1cc2n(n1)CC(C)(C(=O)NC1CCC(C)CC1)N(c1ccc(C(C)C)cc1)C2=O (stereo not given) | -2.46% | 0% | 6.44% | -1.65% | 0.548%
18 | CCCCNC(=O)CCn1ccc2cc(S(=O)(=O)N3CCCC3)ccc21 | 2.63% | 0.279% | 0.899% | 7.8% | 2.2%
19 | CC(=O)Nc1c2n(c3ccccc13)CC(C)(C(=O)NC1CCCCCC1)N(C1CCC(C)CC1)C2=O (stereo not given) | 0.405% | 0.845% | 0.447% | -5.98% | 1.11%
20 | COc1ccc(CCNC(=O)C2(C)CCOCC2)cc1 | 0.66% | 0.698% | 3.01% | -0.766% | -0.56%

Row | SMILES | activity change, negative = inhibition [1] | activity change, negative = inhibition [2] | activity change, negative = inhibition [3] | activity change, negative = inhibition [4] | activity change, negative = inhibition [5]
21 | CCOC(=O)c1ccc2c(c1)[C@@H]1C=CC[C@@H]1[C@H](c1ccccc1C(F)(F)F)N2 | -4.04% | 3.42% | 0.637% | -6.97% | -5.22%
22 | Cc1cccc(CNC(=O)C2(C)Cn3cnc(C(=O)NCc4ccc(OC(C)C)cc4)c3C(=O)N2C2CC2)c1 (stereo not given) | 3.6% | 2.84% | 16.1% | 1.89% | 10.2%
23 | N#Cc1ccc(COc2ccc(-c3cccc4nc(NC(=O)C5CC5)nn34)cc2)cn1 | -17.1% | 6.92% | -0.923% | -10.8% | -4.9%
24 | CC(C)CCNC(=O)C1(C)Cn2nc(C(=O)NCc3ccccc3Cl)cc2C(=O)N1C (stereo not given) | -1.87% | 3.73% | 1.33% | 2.68% | -1.62%
25 | FC(F)(F)Oc1ccc(-c2ccc3nnc(C(F)(F)F)n3c2)cc1 | -5.27% | -13.3% | 2.91% | -26.1% | -7.85%
26 | CCCn1c(=O)c2ccc(C(=O)NCC(C)C)cc2n2c(SCC(=O)Nc3cccc(F)c3)nnc12 | 3.4% | 0% | 5.99% | -12.7% | -0.231%
27 | CCc1ccc(CN2C(=O)c3cc(C(C)(C)C)nn3CC2(C)C(=O)NCc2ccccc2)cc1 (stereo not given) | 0.983% | 0% | 1.51% | 1.03% | -4.07%
28 | CC(=O)C1(C)CCC2C3C=C(C)C4=CC(=O)CCC4(C)C3CCC21C (stereo not given) | -18.7% | 8.07% | -1.24% | -28.8% | -7.53%
29 | COc1cccc(CN2C(=O)c3nc4ccccc4n3CC2(C)C(=O)NC2CCCCC2)c1 (stereo not given) | 4.89% | 0% | 4.11% | 7.21% | 0.496%
30 | CC(=O)N(C)CCc1noc(C2CN(Cc3c(F)cccc3Cl)C2)n1 | -6.89% | -0.082% | -1.31% | -1.55% | -22.4%
31 | O=C(c1ccc(F)cc1)N1CCC[C@H](c2nc(-c3ccc(F)cc3)no2)C1 |  | -3.55% |  | -15.7% | -14.4%
32 | CCC(C)NC(=O)c1ccc2c(=O)n(CCC(C)C)c3nn(Cc4ccc(Cl)cc4)c(=O)n3c2c1 (stereo not given) | -1.05% | 3.57% | 1.49% | -0.32% | -1.17%
33 | CCCSCCCN1C(=O)c2cc3ccccc3n2CC1(C)C(=O)NC1CCCCCC1 (stereo not given) | 2.37% | 0% | 2.85% | -1.13% | -1.99%
34 | CCOC(=O)c1cc2n(n1)CC(C)(C(=O)NCc1ccccc1)N(CCc1cccs1)C2=O (stereo not given) | -6.09% | -2.49% | 0.173% | -3.29% | -4.26%
35 | Cc1nn2c(c1-c1ccnn1C(C)C)N(C(=O)COc1ccccc1C(N)=O)CCC2 | -7.94% | -7.08% | -4.61% | -9.99% | -6.16%
36 | CC1CCN(C(=O)CC#N)CC1N(C)c1ncnc2[nH]ccc12 (stereo not given) | 1.66% |  | 4.08% |  | 
37 | Cc1ccc(Cl)cc1N(CC(=O)Nc1c(F)cccc1F)S(C)(=O)=O | 7.73% | 3.51% | 10.5% | -10.3% | -0.148%
38 | Cc1cc(C(=O)N[C@@H]2CCC[C@@H](C(=O)NC3CC3)CC(=O)N(C)C2)nn1C | 1.06% | 0.796% | -0.512% | 0.8% | -1.55%
39 | C=CC1(C)CC(OC(=O)/C(C)=C\COC(C)=O)C(C(=C)C(=O)O)C(O)C1C(=C)CO (stereo not given) | 5.79% | 8.42% | 8.41% | -4.95% | 7.5%
